# Reference: PubChem BioAssay (Tox21)
# This list was built around the results that the source calls inconclusive (neither active nor inactive); the mix of calls is not that of the screen. For some assays here: Potencies beside an inconclusive call are fits to weak or partial responses and may not hold up. Some structures have more than one record in an assay (separate samples or runs), and their calls can disagree. Activity calls are given as the source filed them. Unless noted, calls come from the whole dose curve; as a rule, active = well fitted curve in the direction sought with a large enough effect in the repeat runs; inconclusive = weak or mixed curves; inactive = no such curve, though single readings can be large; an effect the other way counts as inactive or inconclusive.
# Key:
# [1] = qHTS assay to identify aromatase inhibitors - cell viability counter screen (AID 743084); settings: MCF-7 aro ERE viability, CellTiter-Fluor, 24 h; activity change, negative = cytotoxicity: at 70.3 µM (top of the series);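 note: cells stimulated with testosterone during compound exposure; nearly all actives have a fitted effect of over 55% in size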; note: potency is the fitted concentration of half-maximal effect; for activity change, negative = cytotoxicity: % is set by controls: 0 for no effect and ±100 for the full control effect
# [2] = qHTS assay to identify small molecule agonists of the farnesoid-X-receptor (FXR) signaling pathway - cell viability counter screen (AID 743218); settings: FXR-bla HEK293T viability, CellTiter-Glo luminescence, 16 h; viability change, negative = cytotoxic: at 62.6 µM (top of the series); note: nearly all actives have a fitted effect of over 45% in size; note: potency is the fitted concentration of half-maximal effect
# Procedure, shortened: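 Parallel cytotoxicity test: compound-treated (16 h, 37 C) HEK 293T FXR-bla reporter cells were lysed with CellTiter-Glo and luminescence recorded.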
# [3] = A CellTox Green Cytotoxicity Assay to monitor cytotoxicity in HEK293 cells - 24 hour (AID 1224875); note: nearly all actives have a fitted effect of over 45% in size; note: potency is the fitted concentration of half-maximal effect
# Procedure, shortened: (§1)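 Fluorescence intensity, read at 0, 8, 16, 24, 32 and 40 h of compound treatment, reflected dye binding to DNA of dead HEK293 cells; compounds (23 nL, DMSO) were added 5 h after plating cells with reagent.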
# [4] = A CellTox Green Cytotoxicity Assay to monitor cytotoxicity in HEK293 cells - 16 hour (AID 1224888); note: nearly all actives have a fitted effect of over 35% in size; note: potency is the fitted concentration of half-maximal effect
# Procedure, shortened: as §1
# [5] = qHTS assay to identify small molecule antagonists of the sonic hedgehog signaling (Shh) pathway (AID 1259369; calls by dose curve; note: nearly all actives have a fitted effect of over 45% in size; note: potency is the fitted concentration of half-maximal effect)
# Procedure, shortened: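 For antagonist detection, the reporter line received test compounds together with conditioned medium, incubated 24hr at 37 C, 5% CO2, then luminescence was recorded following 30min room-temperature luciferase reagent incubation.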
# [6] = qHTS assay to identify small molecule agonists of the progesterone receptor (PR) signaling pathway - cell viability counter screen (AID 1346799; calls by dose curve; note: nearly all actives have a fitted effect of over 45% in size; note: potency is the fitted concentration of half-maximal effect)
# Procedure, shortened: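 HEK293T PR-UAS-bla, 3,000 cells/well, 2% charcoal-stripped FBS; 6 h settle, compound 16 h at 37C/5% CO2; LiveBLAzer 2 h RT, then CellTiter-Glo 30 min RT, luminescence read.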
# [7] = qHTS assay to identify small molecule antagonists of the thyroid receptor (TR) signaling pathway (AID 743065); note: nearly all actives have a fitted effect of over 55% in size; note: potency is the fitted concentration of half-maximal effect
# Procedure, shortened: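 GH3.TRE-Luc rat pituitary cells carrying two TR response elements driving luciferase were plated for 4 h, given compound plus 1 nM T3 (final), and incubated 23.5 h at 37 C. ONE-Glo luminescence measured reporter inhibition; CellTiter-Fluor fluorescence tracked cytotoxicity.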
# [8] = qHTS assay to identify small molecule antagonists of the vitamin D receptor (VDR) signaling pathway - cell viability counter screen (AID 743225); settings: VDR-bla HEK293T viability, CellTiter-Glo luminescence, 16 h; viability change, negative = cytotoxic: at 61 µM (top of the series) unless noted; note: nearly all actives have a fitted effect of over 50% in size; note: potency is the fitted concentration of half-maximal effect
# Procedure, shortened: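 Viability counter screen run in the same wells as the beta-lactamase reporter assay: HEK 293T VDR-UAS-bla cells, 16 h compound exposure at 37C with 3 nM (final) 1-alpha,25-dihydroxyvitamin D3. CellTiter-Glo luminescence, 30 min, room temperature.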
# [9] = qHTS assay to identify small molecule antagonists of the androgen receptor (AR) signaling pathway using the MDA cell line - cell viability counter screen (AID 743041; note: nearly all actives have a fitted effect of over 45% in size; note: potency is the fitted concentration of half-maximal effect); settings: MDA-kb2 viability, CellTiter-Fluor, 16 h, cells co-treated with R1881 androgen agonist; viability change, negative = cytotoxic: at 70.3 µM (top of the series)
# Procedure, shortened: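 MDA-kb2 AR-luc human breast carcinoma cells (MMTV-luciferase, AR/GR responsive) were treated with compounds plus R1881 agonist for 16 h at 37 °C. Viability was read as CellTiter-Fluor fluorescence in the same wells as the reporter assay.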
# [10] = qHTS assay to identify small molecule agonists of the estrogen receptor beta (ER-beta) signaling pathway - cell viability counter screen (AID 1259380); note: nearly all actives have a fitted effect of over 30% in size; note: potency is the fitted concentration of half-maximal effect
# Procedure, shortened: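 CellTiter-Glo read, 30 min RT, same wells as bla assay; cells ER-beta-UAS-bla HEK293T; 16 hr compound, 37C; medium 2% charcoal-stripped FBS.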
# [11] = target: Estrogen receptor (Homo sapiens) (UniProt P03372); experiment: qHTS assay to identify small molecule antagonists of the estrogen receptor alpha (ER-alpha) signaling pathway (AID 743069; active = well fitted curve in the direction sought with a large enough effect in the signal ratio in the repeat runs, not every such curve was filed as active; inconclusive = weak or mixed curves, or effect the other way; inactive = no such curve, though single readings can be large or run the other way; the % refers to the signal ratio; note: potency is the fitted concentration of half-maximal effect); settings: HEK293 ER-alpha-UAS-bla, beta-lactamase ratio, antagonist mode; activity, negative = inhibition: at 69.4 µM (top of the series) unless noted
# UniProt P03372, sequence (P03372 whole entry, looked up): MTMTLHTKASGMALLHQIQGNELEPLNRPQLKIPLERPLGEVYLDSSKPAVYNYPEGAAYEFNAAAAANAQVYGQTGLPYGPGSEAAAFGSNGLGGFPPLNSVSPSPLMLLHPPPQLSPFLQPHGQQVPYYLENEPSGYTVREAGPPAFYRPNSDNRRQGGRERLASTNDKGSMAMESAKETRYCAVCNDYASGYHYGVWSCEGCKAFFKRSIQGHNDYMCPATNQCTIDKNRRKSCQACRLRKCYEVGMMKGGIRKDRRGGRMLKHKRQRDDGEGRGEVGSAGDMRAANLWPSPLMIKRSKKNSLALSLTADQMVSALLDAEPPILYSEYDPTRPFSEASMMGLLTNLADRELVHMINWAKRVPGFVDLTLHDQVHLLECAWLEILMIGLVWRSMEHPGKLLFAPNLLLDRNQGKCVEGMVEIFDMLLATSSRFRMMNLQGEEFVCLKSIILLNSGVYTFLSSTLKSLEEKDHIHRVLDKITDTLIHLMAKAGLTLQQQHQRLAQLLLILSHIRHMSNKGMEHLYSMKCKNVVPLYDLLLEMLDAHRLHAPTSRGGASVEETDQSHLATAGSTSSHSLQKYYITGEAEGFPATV
# Procedure, shortened: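 HEK293 cells stably carrying an ER-alpha-UAS-bla beta-lactamase reporter were pre-cultured overnight in 2% charcoal-stripped FBS medium. Test compounds in DMSO were added together with 17beta-estradiol for 18 hr at 37C. Read-out was fluorescence after 2 hr with LiveBLAzer B/G FRET substrate at room temperature.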
# [12] = target: Vitamin D3 receptor (Homo sapiens) (UniProt P11473); experiment: qHTS assay to identify small molecule antagonists of the vitamin D receptor (VDR) signaling pathway (AID 743223; active = well fitted inhibition curve with a large enough effect in the signal ratio in the repeat runs, not every such curve was filed as active; inconclusive = weak or mixed curves, or effect the other way; inactive = no such curve, though single readings can be large or run the other way; the % refers to the signal ratio; note: % is set by controls: 0 for no effect and ±100 for the full control effect); settings: VDR-UAS-bla HEK293T, beta-lactamase FRET ratio, 16 h; activity change, negative = inhibition: at 61 µM (top of the series) unless noted
# UniProt P11473, sequence (P11473 whole entry, looked up): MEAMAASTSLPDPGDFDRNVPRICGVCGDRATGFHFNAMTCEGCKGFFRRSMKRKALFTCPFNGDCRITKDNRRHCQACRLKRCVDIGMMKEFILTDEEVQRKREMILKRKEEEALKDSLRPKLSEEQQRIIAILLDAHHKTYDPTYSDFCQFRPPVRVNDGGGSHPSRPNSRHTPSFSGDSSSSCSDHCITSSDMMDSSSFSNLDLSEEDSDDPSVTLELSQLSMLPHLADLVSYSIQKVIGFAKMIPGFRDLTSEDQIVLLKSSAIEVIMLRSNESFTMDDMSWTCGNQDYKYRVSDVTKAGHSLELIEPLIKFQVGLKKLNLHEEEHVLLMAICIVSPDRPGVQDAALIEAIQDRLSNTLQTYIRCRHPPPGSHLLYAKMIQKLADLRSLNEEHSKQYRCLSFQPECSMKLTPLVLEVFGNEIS
# Procedure, shortened: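 Beta-lactamase reporter read-out: FRET substrate fluorescence after 2 h at room temperature, following 16 h exposure of VDR-bla cells to test compound plus 3 nM (final) 1alpha,25-dihydroxyvitamin D3 agonist at 37C.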
# [13] = qHTS assay for small molecule agonists of the p53 signaling pathway - cell viability (AID 651633; calls by dose curve;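 note: p53RE-bla HCT reporter cells with a stable beta-lactamase p53 reporter; % is set by controls: 0 for no effect and ±100 for the full control effect; nearly all actives have a fitted effect of over 30% in size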)
# Procedure, shortened: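 p53RE-bla cells, seeded at 4,000 per well and rested 5 h at 37 C/5% CO2, received compounds in DMSO for 16 h at 37 C. CellTiter-Glo was then added, and luminescence was read after 30 min at room temperature to gauge cytotoxicity.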
# [14] = target: Estrogen receptor beta (Homo sapiens) (UniProt Q92731); experiment: qHTS assay to identify small molecule antagonists of the estrogen receptor beta (ER-beta) signaling pathway (AID 1259378; active = well fitted inhibition curve with a large enough effect in the signal ratio in the repeat runs, not every such curve was filed as active; inconclusive = weak or mixed curves, or effect the other way; inactive = no such curve, though single readings can be large or run the other way; the % refers to the signal ratio; note: % is set by controls: 0 for no effect and ±100 for the full control effect); settings: ER-beta-UAS-bla HEK293T, beta-lactamase FRET ratio, 16 h; activity, negative = inhibition: at 92.4 µM (top of the series) unless noted
# UniProt Q92731, sequence (Q92731 whole entry, looked up): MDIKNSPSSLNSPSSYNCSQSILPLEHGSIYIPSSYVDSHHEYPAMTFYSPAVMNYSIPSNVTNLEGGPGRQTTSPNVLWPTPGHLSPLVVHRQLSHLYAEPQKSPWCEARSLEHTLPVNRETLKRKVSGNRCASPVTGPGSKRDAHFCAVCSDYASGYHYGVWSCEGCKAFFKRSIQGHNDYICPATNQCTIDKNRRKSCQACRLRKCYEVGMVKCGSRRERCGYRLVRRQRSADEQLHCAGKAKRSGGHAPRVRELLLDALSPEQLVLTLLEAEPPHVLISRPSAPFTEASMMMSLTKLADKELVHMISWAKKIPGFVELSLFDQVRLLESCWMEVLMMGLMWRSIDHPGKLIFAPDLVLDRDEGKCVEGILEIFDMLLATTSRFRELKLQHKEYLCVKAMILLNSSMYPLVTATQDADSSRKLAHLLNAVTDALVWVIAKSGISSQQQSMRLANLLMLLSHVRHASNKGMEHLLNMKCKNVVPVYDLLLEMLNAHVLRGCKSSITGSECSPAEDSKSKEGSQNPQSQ
# Procedure, shortened: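 ER-beta-UAS-bla HEK293T (GripTite) cells in 2% charcoal-stripped FBS medium were preincubated 6 hr at 37C, dosed with compound, then stimulated with 1 nM E2 (final) for 16 hr; beta-lactamase reporter read by B/G FRET fluorescence after 2 hr substrate loading.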
# [15] = qHTS assay to identify small molecule antagonists of the peroxisome proliferator-activated receptor gamma (PPARg) signaling pathway - cell viability counter screen (AID 743194); settings: PPARg-bla HEK293H viability, CellTiter-Glo luminescence, 17 h; Potency: co-treated with 50 nM rosiglitazone unless noted; activity change, negative = cytotoxicity: at 62.6 µM (top of the series), co-treated with 50 nM rosiglitazone unless noted; note: nearly all actives have a fitted effect of over 55% in size; note: potency is the fitted concentration of half-maximal effect
# Procedure, shortened: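 PPARg-UAS-bla HEK293H cells were plated, rested 5 h at 37 C, then treated with compounds plus rosiglitazone (50 nM final) for 17 h at 37 C; viability was then read by CellTiter-Glo luminescence after 30 min at room temperature.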
# [16] = qHTS assay to identify small molecule antagonists of the progesterone receptor (PR) signaling pathway - cell viability counter screen (AID 1346798); note: nearly all actives have a fitted effect of over 50% in size; note: potency is the fitted concentration of half-maximal effect
# Procedure, shortened: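 Luminescence readout (CellTiter-Glo, 30 min, RT) of viability in PR-UAS-bla HEK293T cells exposed to compound and R5020 agonist for 16 hr at 37C, 5% CO2; run in the same wells as the beta-lactamase reporter read.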
# [17] = test system: thyroid hormone receptor (rat, GH3 cells); experiment: qHTS assay to identify small molecule agonists of the thyroid receptor (TR) signaling pathway (AID 743066; calls by dose curve; note: % is set by controls: 0 for no effect and ±100 for the full control effect); settings: GH3.TRE-Luc cells, TR agonist luciferase, 24 h; activation: at 83.9 µM (top of the series) unless noted
# [18] = qHTS assay to identify small molecule antagonists of the estrogen receptor alpha (ER-alpha) signaling pathway using the BG1 cell line (AID 743080; calls by dose curve;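 note: BG1 cells stimulated with 17beta-estradiol alongside compound; nearly all actives have a fitted effect of over 25% in size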; note: potency is the fitted concentration of half-maximal effect); settings: BG1Luc4E2 ERE-luciferase antagonist mode, luminescence; activity change, negative = inhibition: at 70.3 µM (top of the series) unless noted
# Procedure, shortened: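 Readout is ONE-Glo luminescence, taken 30 min at room temperature after reagent addition, preceded by a CellTiter-Fluor viability read; BG1-Luc-4E2 cells had received compound and 17beta-estradiol for 21.5 h at 37 C.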
# [19] = target: Nuclear receptor subfamily 1 group I member 2 (Rattus norvegicus) (UniProt Q9R1A7); experiment: Rat pregnane X receptor (rPXR) activation by small molecules, qHTS assay (AID 1346983); settings: rPXR luciferase reporter cells, One-Glo luminescence, 24 h; max activation: active compounds read high; note: nearly all actives have a fitted effect of over 20% in size; note: potency is the fitted concentration of half-maximal effect
# UniProt Q9R1A7, sequence (Q9R1A7 whole entry, looked up): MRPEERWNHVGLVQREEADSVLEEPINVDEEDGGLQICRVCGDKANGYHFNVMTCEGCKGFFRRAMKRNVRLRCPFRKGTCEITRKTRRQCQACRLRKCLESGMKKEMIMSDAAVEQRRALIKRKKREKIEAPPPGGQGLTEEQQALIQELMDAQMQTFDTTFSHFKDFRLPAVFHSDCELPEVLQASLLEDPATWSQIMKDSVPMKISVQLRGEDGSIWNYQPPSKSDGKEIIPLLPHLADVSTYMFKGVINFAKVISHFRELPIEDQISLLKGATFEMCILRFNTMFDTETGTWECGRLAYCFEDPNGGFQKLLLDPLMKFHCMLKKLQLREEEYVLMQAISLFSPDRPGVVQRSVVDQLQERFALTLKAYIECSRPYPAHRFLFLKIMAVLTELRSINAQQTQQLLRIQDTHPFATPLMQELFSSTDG
# Procedure, shortened: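 Cell-based rPXR luciferase reporter assay, 2,000 cells per well, rested 5hr at 37 C before compound addition in DMSO, then 24 hr at 37 C. One-Glo reagent was added and luminescence read after 30 min at room temperature.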
# [20] = target: Estrogen receptor (Homo sapiens) (UniProt P03372); experiment: qHTS assay to identify small molecule agonists of the estrogen receptor alpha (ER-alpha) signaling pathway (AID 743075; calls by dose curve; note: potency is the fitted concentration of half-maximal effect); settings: HEK293 ER-alpha-UAS-bla, beta-lactamase FRET ratio, 18 h; activation: at 70.1 µM (top of the series) unless noted
# Tags give direction and shape of the fitted curve or compound fluorescence and quenching.
smiles,measurement,setting,value
CN(C)N,Potency,[1],inactive
same,Potency,[2],inactive
same,Potency,[3],"inconclusive: 21.9 µM [activator, single point]"
same,Potency,[4],"inconclusive: 21.9 µM [activator, single point]"
same,Potency,[5],inactive
same,Potency,[6],inactive
O=[N+]([O-])c1cccc(CCl)c1,Potency,[7],inactive
same,Potency,[8],"inconclusive: 22.4 µM [rising, partial curve, poor fit]"
same,Potency,[3],inactive
CC(=O)[O-].CC(=O)[O-].CC(=O)[O-].[Sb+3],"viability change, negative = cytotoxic",[9],inactive: -11.1% [at 8.47 µM]
same,Potency,[2],"inconclusive: 1.15 µM [rising, partial curve, poor fit]"
same,"viability change, negative = cytotoxic",[8],inactive: 0.879% [at 6.95 µM]
same,activity change,[3],"inactive: 1.85% [at 2.72 µM, active compounds read high]"
C/C=C/CC#N,Potency,[3],"inconclusive: 56.2 µM [activator, single point]"
same,Potency,[4],"inconclusive: 56.2 µM [activator, single point]"
same,Potency,[5],inactive
same,Potency,[10],inactive
CN(C)C(=O)Nc1cccc(C(F)(F)F)c1,Potency,[7],inactive
same,Potency,[8],"inconclusive: 0.0012 µM [rising, full curve, poor fit]"
same,Potency,[10],"inconclusive: 27.3 µM [rising, single point]"
C#CC(O)(C=CCl)CC (stereo unspecified),Potency,[8],inactive
same,Potency,[3],inactive
ClCC(Cl)(Cl)Cl,Potency,[11],inactive
same,Potency,[2],"inconclusive: 36 µM [rising, single point]"
same,Potency,[12],inactive
CC(=[OH+])/C=C(/C)[O-].CC(=[OH+])/C=C(\C)[O-].CC(=[OH+])/C=C(\C)[O-].[Al],Potency,[5],inactive
ClC(Cl)C(Cl)Cl,Potency,[13],inactive
same,Potency,[1],inactive
same,Potency,[12],inactive
same,Potency,[5],inactive
C=CC(=O)N(C)C,"activity, negative = inhibition",[14],inconclusive: 23%
same,Potency,[6],inactive
[P]#[In],Potency,[15],"inconclusive: 0.0347 µM [cytotoxic, full curve, poor fit]"
same,"activity change, negative = inhibition",[12],inconclusive: 24.1%
same,Potency,[16],inactive
ClCCN1CCCC1,Potency,[5],"inconclusive: 33.5 µM [inhibitor, single point]"
same,Potency,[6],"inconclusive: 13.3 µM [cytotoxic, single point]"
COCc1cnc(C2=NC(C)(C(C)C)C(=O)N2)c(C(=O)O)c1 (stereo unspecified),Potency,[8],"inconclusive: 1.74 µM [cytotoxic, full curve, poor fit]"
same,Potency,[6],"inconclusive: 15.4 µM [cytotoxic, single point]"
CC(=O)O.CC(=O)O.CC(=O)O.CC(=O)O.CC(=O)O.CC(=O)O.CC(=O)O.O.O.[Cr].[Cr].[Cr],Potency,[17],inactive
CC(=O)c1ccc(-c2ccccc2)cc1,Potency,[3],inactive
same,Potency,[5],inactive
C=CCOCC1CO1 (stereo unspecified),Potency,[16],"inconclusive: 66.9 µM [rising, single point]"
C[C@@H]1CN(C2CCC(C#N)(c3ccc(F)cc3)CC2)CC[C@]1(C(=O)O)c1ccccc1 (stereo partly specified),Potency,[15],inactive
same,Potency,[2],"inconclusive: 0.0024 µM [rising, full curve, poor fit]"
same,Potency,[14],inactive
same,Potency,[10],inactive
same,Potency,[6],inactive
OC(Cn1cncn1)(c1ccc(F)cc1)c1ccccc1F (stereo unspecified),Potency,[12],inactive
same,Potency,[4],inactive
CCN(CC)CCO[C@H]1CC[C@@]2(C)C(=CC[C@@H]3[C@@H]2CC[C@]2(C)C(=O)CC[C@@H]32)C1,Potency,[7],active: 21.1 µM
CCC(C)C(C)(COC(N)=O)COC(N)=O (stereo unspecified),Potency,[2],inactive
CN1C(=O)CN=C(c2ccccc2)c2cc([N+](=O)[O-])ccc21,Potency,[7],"inconclusive: 26.6 µM [inhibitor, partial curve, poor fit]"
same,"activity change, negative = inhibition",[18],inconclusive: -10.8%
same,Potency,[1],"inconclusive: 10.6 µM [cytotoxic, partial curve]"
CC(C)(C)C(=O)C(Cl)Cl,Potency,[7],inactive
same,Potency,[15],"inconclusive: 15.5 µM [rising, full curve, poor fit]"
same,Potency,[8],"inconclusive: 0.0025 µM [cytotoxic, full curve, poor fit]"
same,Potency,[14],inactive
F/C(COc1ccc2c(c1)[nH]c1ccccc12)=C1/CN2CCC1CC2,activation,[17],inconclusive: -9.05% [phenotype inactive]
same,Potency,[11],active: 19 µM [inhibitor]
same,Potency,[18],inconclusive: 29.8 µM
same,Potency,[1],"inconclusive: 33.5 µM [cytotoxic, single point]"
same,Potency,[19],"inconclusive: 15.8 µM [activator, partial curve]"
CCC(N)Cc1c[nH]c2ccccc12 (stereo unspecified),Potency,[9],"inconclusive: 86.6 µM [cytotoxic, single point]"
same,max activation,[19],inactive: -0.551%
Cc1ccc2c(c1)[C@]13CCCC[C@@H]1[C@H](C2)N(C)CC3,Potency,[7],"inconclusive: 26.6 µM [inhibitor, single point]"
CC(=O)O[C@H]1C[C@H](O[C@H]2[C@@H](O)C[C@H](O[C@H]3[C@@H](O)C[C@H](O[C@H]4CC[C@@]5(C)[C@H](CC[C@@H]6[C@@H]5C[C@@H](O)[C@]5(C)[C@@H](C7=CC(=O)OC7)CC[C@]65O)C4)O[C@@H]3C)O[C@@H]2C)O[C@H](C)[C@H]1O[C@@H]1O[C@H](CO)[C@@H](O)[C@H](O)[C@H]1O,Potency,[9],"inconclusive: 0.221 µM [cytotoxic, full curve]"
same,Potency,[11],"inconclusive: 1.2 µM [fluorescent, full curve, poor fit]"
same,Potency,[20],"inconclusive: 0.268 µM [rising, full curve]"
same,Potency,[18],"inconclusive: 0.106 µM [rising, partial curve]"
